Some of these results come from one statement about several compounds together.
The compounds below were run against T1, recombinant BRD4 FL bromodomain (Homo sapiens, UniProt O60885) (assay: BRD4 FL TR-FRET displacement assay). Details: dose-response, read-out: IC50 (group A, B, C).
T1 construct: fused on or other part: 6xHis tag, inferred from detection with Mab ANTI 6HIS-XL665
Type: binding
Experimental: The potency of compounds to inhibit BRD4 FL enzyme was tested in a TR-FRET displacement assay using recombinant BRD4 FL bromodomain obtained In-house. The assay buffer was 50 mM HEPES (pH 7.5), 50 mM NaCl, 500 μM CHAPS. 10 nM of BRD4 FL & 300 nM of Biotinylated Acetyl histone H4 (Lys 5, 8, 12, 16) (Millipore, USA) was incubated at room temperature for 30 minutes, the reaction was initiated by adding the pre-incubated enzyme ligand mixture to the test compounds. After 30 min incubation, the reaction was stopped by the addition of stop mix containing 1 nM of Europium Streptavidin cryptate (Cisbio, USA) and 5 nM of Mab ANTI 6HIS-XL665 (Cisbio, USA) dilutes in assay buffer containing 2.4M Potassium Fluoride. Fluorescence emission of the samples at 665 and 615 nm were measured at an excitation of 340 nm and their ratio was plotted against the compound concentrations to generate dose-response curve. The percent inhibition of the test compounds is calculated using the ratio of enzyme activity controls.
Selected compounds of the present invention were screened in the above-mentioned assay procedures and IC50 values were determined by fitting the dose-response data to sigmoidal curve fitting equation using Graph pad prism software V7.
Work on CC(=O)NC1CCN(c2cc3c(cc(C)c(=O)n3C)c(N3CCCc4cc(-c5cnn(C)c5)c(C(F)F)cc43)n2)C1 (stereo not drawn) [Example 216] yielded an IC50 of under 2 µM. Cc1cc2c(N3CCCc4cc(-c5cnn(C)c5)c(C(F)F)cc43)cc(N3CCOCC3)cc2n(C)c1=O [Example 178] gave an IC50 of under 2 µM. Work on COc1cc(N2CCN(C3CC3)c3cc(N4CCN(C)CC4)c(C#N)cc32)c2cc(C)c(=O)n(C)c2c1 [Example 25] yielded an IC50 of under 2 µM. Work on COc1cc(N2CCCc3ccc(C#N)cc32)c2cc(C)c(=O)n(C)c2c1 [Example 184] yielded an IC50 of over 5 µM. Work on COc1cc(N2CCN(C)c3cc(N4CCC(N(C)C)CC4)c(C#N)cc32)c2cc(C)c(=O)n(C)c2c1 [Example 22] yielded an IC50 of under 2 µM. For Cc1cc2c(N3CCN(C)c4cc(S(=O)(=O)C(C)C)ncc43)cc(N3CCOCC3)cc2n(C)c1=O [Example 141], the IC50 was under 2 µM. Compound Cc1cc2c(N3CCN(C)c4cc(-c5cnn(C)c5)ncc43)cc(N3CCOCC3)cc2n(C)c1=O [Example 134] has an IC50 of over 5 µM. For Cc1cc2c(N3CCN(C)c4cc(-c5cnn(C)c5)c(C#N)cc43)cc(OCCN(C)C)cc2n(C)c1=O [Example 39], the IC50 was under 2 µM. Cc1cc2c(N3CCN(C)c4cc(-c5cnn(C)c5)ncc43)cc(C3CCOCC3)cc2n(C)c1=O [Example 143] gave an IC50 of over 5 µM. Compound Cc1cc2c(N3CCCc4cc(-c5cnn(C)c5)c(C(F)F)cc43)nc(N3CC[C@H](O)C3)cc2n(C)c1=O [Example 210] has an IC50 of under 2 µM. Work on CCN1CCN(c2cc(OC)cc3c2cc(C)c(=O)n3C)c2cc(C#N)c(N3CCN(C(C)=O)CC3)cc21 [Example 32] yielded an IC50 of under 2 µM. In the case of Cc1cc2c(N3CCN(C)c4cc(-c5cnn(C)c5)ncc43)cc(C#CCO)cc2n(C)c1=O [Example 155, 7-(3-Hydroxyprop-1-yn-1-yl)-1,3-dimethyl-5-(1-methyl-7-(1-methyl-1H-pyrazol-4-yl)-2,3-dihydropyrido[3,4-b]pyrazin-4(1H)-yl)quinolin-2(1H)-one], the IC50 is reported as under 2 µM. COc1ccc(CN2CCN(c3cc(OC)cc4c3cc(C)c(=O)n4C)c3cc(C#N)c(-c4cnn(C)c4)cc32)cc1 [Example 8, 4-(7-methoxy-1,3-dimethyl-2-oxo-1,2-dihydroquinolin-5-yl)-1-(4-methoxybenzyl)-7-(1-methyl-1H-pyrazol-4-yl)-1,2,3,4-tetrahydroquinoxaline-6-carbonitrile] was tested, and the IC50 was under 2 µM. In the case of Cc1cc2c(N3CCN(C)c4cc(-c5cnn(C)c5)ccc43)cc(OCC(=O)O)cc2n(C)c1=O [Example 72, 2-((1,3-Dimethyl-5-(4-methyl-6-(1-methyl-1H-pyrazol-4-yl)-3,4-dihydroquinoxalin-1(2H)-yl)-2-oxo-1,2-dihydroquinolin-7-yl)oxy)acetic acid], the IC50 is reported as over 5 µM. Work on COc1cc2c(cc1-c1cnn(C)c1)CCCN2c1nc(N2CCC(S(N)(=O)=O)C2)cc2c1cc(C)c(=O)n2C (stereo not drawn) [Example 246, 1-(5-(7-Methoxy-6-(1-methyl-1H-pyrazol-4-yl)-3,4-dihydroquinolin-1(2H)-yl)-1,3-dimethyl-2-oxo-1,2-dihydro-1,6-naphthyridin-7-yl)pyrrolidine-3-sulfonamide] yielded an IC50 of under 2 µM. CNC(=O)[C@@H]1CCN(c2cc3c(cc(C)c(=O)n3C)c(N3CCCc4cc(-c5cnn(C)c5)c(C(F)F)cc43)n2)C1 [Example 211] showed an IC50 of under 2 µM. Cc1cc2c(N3CCN(C)c4cc(-c5cnn(C)c5)ncc43)nc(N3C4CCC3COC4)cc2n(C)c1=O [Example 221] was tested, and the IC50 was over 5 µM. In the case of COc1cc2c(cc1-c1cnn(C)c1)CCCN2c1nc(N2CCC(O)C2)cc2c1cc(C)c(=O)n2C (stereo not drawn) [Example 232], the IC50 is reported as under 2 µM. In the case of COc1cc(N2CCN(C)c3cc(N4CCN(C)CC4)c(C#N)cc32)c2cc(C)c(=O)n(C)c2c1 [Example 19], the IC50 is reported as under 2 µM. With Cc1cc2c(N3CCSc4cc(-c5cnn(C)c5)ncc43)cc(N3CCOCC3)cc2n(C)c1=O [Example 171] the IC50 was under 2 µM. With COc1cc(N2CCCc3cc(N4CCN(C(C)=O)CC4)ccc32)c2cc(C)c(=O)n(C)c2c1 [Example 185] the IC50 was over 5 µM. Compound COc1cc(N2CCN(C)c3cc(-c4ccn(C)n4)c(C#N)cc32)c2cc(C)c(=O)n(C)c2c1 [Example 14] has an IC50 of under 2 µM. Cc1cc2c(N3CCN(C)c4cc(-c5cnn(C)c5)c(F)cc43)cc(N3CCOCC3)cc2n(C)c1=O [Example 48] showed an IC50 of under 2 µM. For Cc1cc2c(N3CCN(C)c4cc(-c5cnn(C)c5)c(C#N)cc43)cc(OCC3CCCN(C)C3)cc2n(C)c1=O (stereo not drawn) [Example 35], the IC50 was under 2 µM. In the case of COc1cc(N2CCN(C)c3cc(-c4cnn(C)c4)c(S(N)(=O)=O)cc32)c2cc(C)c(=O)n(C)c2c1 [Example 90], the IC50 is reported as under 2 µM. Work on Cc1cc2c(N3CCCc4cc(-c5cnn(C)c5)c(C(F)F)cc43)nc(N3CCN(C)CC3)cc2n(C)c1=O [Example 223] yielded an IC50 of under 2 µM. For COc1cc(N2CCN(C)c3cc(C4=CCN(C)CC4)c(C#N)cc32)c2cc(C)c(=O)n(C)c2c1 [Example 17], the IC50 was under 2 µM. COc1cc(N2CCN(C)c3cc(C(F)(F)F)ncc32)c2cc(C)c(=O)n(C)c2c1 [Example 124] was tested, and the IC50 was under 2 µM. Compound COc1cc(N2CCN(C)c3ccc([S+](C)[O-])cc32)c2cc(C)c(=O)n(C)c2c1 (stereo not drawn) [Example 99] has an IC50 of under 2 µM. Compound Cc1cc2c(N3CCN(C)c4cc(-c5cnn(C)c5)ncc43)cc(O)cc2n(C)c1=O [Example 145, 7-Hydroxy-1,3-dimethyl-5-(1-methyl-7-(1-methyl-1H-pyrazol-4-yl)-2,3-dihydropyrido[3,4-b]pyrazin-4(1H)-yl)quinolin-2(1H)-one] has an IC50 of over 5 µM. With Cc1cc2c(N3CCCc4cc(-c5cnn(C)c5)c(C(F)F)cc43)nc(N3CCOCC3)cc2n(C)c1=O [Example 234, 5-(7-(Difluoromethyl)-6-(1-methyl-1H-pyrazol-4-yl)-3,4-dihydroquinolin-1(2H)-yl)-1,3-dimethyl-7-morpholino-1,6-naphthyridin-2(1H)-one] the IC50 was under 2 µM. COCCOc1cc(N2CCN(C)c3cc(-c4cnn(C)c4)c(C#N)cc32)c2cc(C)c(=O)n(C)c2c1 [Example 37] gave an IC50 of under 2 µM. Cc1cc2c(N3CCCc4cc(-c5cnn(C)c5)c(O)cc43)nc(C3CCOCC3)cc2n(C)c1=O [Example 244, 5-(7-Hydroxy-6-(1-methyl-1H-pyrazol-4-yl)-3,4-dihydroquinolin-1(2H)-yl)-1,3-dimethyl-7-(tetrahydro-2H-pyran-4-yl)-1,6-naphthyridin-2(1H)-one] gave an IC50 of under 2 µM. Work on CNC(=O)[C@H]1CCN(c2cc3c(cc(C)c(=O)n3C)c(N3CCCc4cc(-c5cnn(C)c5)c(C(F)F)cc43)n2)C1 [Example 212] yielded an IC50 of under 2 µM. With COc1cc(N2CCN(C)c3cc(N4CCOCC4)c(C#N)cc32)c2cc(C)c(=O)n(C)c2c1 [Example 18] the IC50 was under 2 µM. COc1cc(N2CCN(C)c3cc(N4CC(C)NC(C)C4)c(C#N)cc32)c2cc(C)c(=O)n(C)c2c1 (stereo not drawn) [Example 24] gave an IC50 of under 2 µM. Compound Cc1ccc2[nH]c(=O)c(C)cc2c1N1CCN(C)c2cc(-c3cnn(C)c3)c(C#N)cc21 [Example 38] has an IC50 of under 2 µM. Cc1cc2c(N3CC(C)N(C)c4cc(-c5cnn(C)c5)ncc43)cc(N3CCOCC3)cc2n(C)c1=O (stereo not drawn) [Example 144] was tested, and the IC50 was over 5 µM. With COc1cc(N2CCN(C)c3cc(N4CCC(O)C4)c(C#N)cc32)c2cc(C)c(=O)n(C)c2c1 (stereo not drawn) [Example 20] the IC50 was under 2 µM. Work on Cc1cc2c(N3CCCc4cc(-c5cnn(C)c5)c(C(F)F)cc43)nc(N3C[C@@H](O)[C@H](O)C3)cc2n(C)c1=O [Example 215] yielded an IC50 of under 2 µM. Compound COc1cc(N2CCN(C)c3cc(N4CCC(NC(C)=O)CC4)c(C#N)cc32)c2cc(C)c(=O)n(C)c2c1 [Example 56] has an IC50 of under 2 µM. Cc1cc2c(N3CCN(C)c4ccc(C#N)cc43)cccc2[nH]c1=O [Example 115, 1-Methyl-4-(3-methyl-2-oxo-1,2-dihydroquinolin-5-yl)-1,2,3,4-tetrahydroquinoxaline-6-carbonitrile] was tested, and the IC50 was under 2 µM. In the case of CNC(=O)N1CCN(c2cc3c(cc2C#N)N(c2cc(OC)cc4c2cc(C)c(=O)n4C)CCN3C)CC1 [Example 28], the IC50 is reported as under 2 µM. Cc1cc2c(N3CCCc4cc(-c5cnn(C)c5)c(C(F)F)cc43)nc(N3CC[C@@H](O)C3)cc2n(C)c1=O [Example 209] was tested, and the IC50 was under 2 µM. For Cc1cc2c(N3CCCc4cc(N5CCC(C)(N)CC5)c(C(F)F)cc43)nc(C3CCOCC3)cc2n(C)c1=O [Example 237], the IC50 was under 2 µM. For Cc1cc2c(N3CCCc4cc(-c5cnn(C)c5)c(C(F)F)cc43)nc(N3CC4(COC4)C3)cc2n(C)c1=O [Example 224], the IC50 was under 2 µM. COc1cc(N2CCN(C)c3cc(-c4cnn(C)c4)c(C#N)cc32)c2cc(C)c(=O)n(C)c2c1 [Example 1, 4-(7-Methoxy-1,3-dimethyl-2-oxo-1,2-dihydroquinolin-5-yl)-1-methyl-7-(1-methyl-1H-pyrazol-4-yl)-1,2,3,4-tetrahydroquinoxaline-6-carbonitrile] was tested, and the IC50 was under 2 µM. Cc1cc2c(N3CCN(C)c4cc(-c5cnn(C)c5)c(C#N)cc43)cc(OCc3ncco3)cc2n(C)c1=O [Example 41] showed an IC50 of under 2 µM. Cc1cc2c(N3CCCc4cc(N5CC(C)NC(C)C5)c(C(F)F)cc43)nc(C3CCOCC3)cc2n(C)c1=O (stereo not drawn) [Example 236] gave an IC50 of under 2 µM. COC(=O)c1cc2c(cc1C#N)N(c1cc(OC)cc3c1cc(C)c(=O)n3C)CCN2C [Example 67, methyl 7-cyano-1-(7-methoxy-1,3-dimethyl-2-oxo-1,2-dihydroquinolin-5-yl)-4-methyl-1,2,3,4-tetrahydroquinoxaline-6-carboxylate] was tested, and the IC50 was under 2 µM. CNC(=O)C1CCN(c2ccc3c(c2)CCCN3c2cc(OC)cc3c2cc(C)c(=O)n3C)CC1 [Example 187] gave an IC50 of over 5 µM.

Source: patent publication US20230322724A1, “HETEROCYCLIC COMPOUNDS AS CBP/EP300 BROMODOMAIN INHIBITORS” (AURIGENE ONCOLOGY LIMITED, priority 2020, published 2023)
